In the supplement of paper PMC11417369:
± gives the standard deviation of the averaged measurements. The list shows a part of the results.

These sequences were tested on PfAP2-G AP2 domain (GST-tagged) (assay: gcPBM binding intensity (ln(normalized median fluorescence intensity)); higher = stronger DNA binding).
In short: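 Binding of GST-tagged P. falciparum DNA-binding domains, expressed in E. coli and used at about 25 μg on average, was carried out for 1 h in 1× PBS containing 1% milk, 0.2 mg/ml BSA, 0.5% salmon testes DNA and 0.03% Triton X-100. The target was an Agilent 4 × 180k array of primer-extended double-stranded 36-bp intergenic genomic probes plus negative controls, read with Alexa488 anti-GST antibody at 488 nm. Binding intensity is the highest Masliner-normalised natural-log median intensity across replicate spots of either probe orientation.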

Sequence | gcPBM binding intensity (ln)
TGTGTTATATATAAAGAAAAAAAAAAAAAATATATA [CACACA_negctrl_site567] | 9.71 ± 0.14
TATTTTAACATGTTTTCAAAAATAAAACATATAAAT [CACACA_negctrl_site1598] | 9.79 ± 0.26
TAATATGACATAAGGGGTACTATATATATATATATT [XGTACX_site386] | 11.2 ± 0.75
AAACATTTACTATATTGTACTTAAGATCTTATCGTA [XGTACX_site3919] | 11 ± 0.67
ATTGGTGTATGTTTATGTACTTATCACAATTATGAA [XGTACX_site7055] | 11.2 ± 0.76
ATATGTTCATTTAAAAGTACTTAATATAACATTTTT [XGTACX_site3332] | 11.1 ± 0.53
AATAGGAAAAGAAAAGCACACACATAAATAAATATA [CACACA_site8062] | 9.9 ± 0.014
GAACTTTACAACCCAACACACAAAAAAGAAAAGAAA [CACACA_site1717] | 10.2 ± 0.24
TGTATATATAATAAAACACACATTTTTAATGTGCTC [CACACA_site1437] | 9.56 ± 0.15
TCAAATTACTAAAATACACACATATTATAGATATAT [CACACA_site7233] | 9.62 ± 0.18
TAAATACAAAAATGCACACGAAAAGTAATATATATA [CACACA_site6151] | 9.94
GATAAAGTACTTTATACACACAAATATTTATATATA [CACACA_site3974] | 11.1 ± 0.86
AAAAAGAAAATATATACACACCAAAAAAAAAAAAAA [CACACA_site5698] | 9.68 ± 0.29
GTTTTATAAAAAGGCGCACACATATACATAAATATA [CACACA_site1864] | 10.8 ± 0.56
AATTTAAATCTTCAAAGTACTAAAAAAAAAAATAAT [XGTACX_site8566] | 10.9 ± 0.54
ATCATATTTATATTGGTGCATTATGCATGAAATTTA [GTGCAC_site9571] | 10 ± 0.27
TTAACATACACTCTAGTGCATATATATAACAAAATA [GTGCAC_site9724] | 9.935 ± 0.078
ATTAAAACACAATATTCACACATGTATATTATATAT [CACACA_site5191] | 9.83 ± 0.13
TTACACATGTATTTGGTGCATGTTGTTAACAAAATA | 10.1 ± 0.12
AAACGATTAATGTGTACACACATAGTTATAAACATA [CACACA_site7073] | 11.7 ± 1.2
AAAACTATTTCTTTCAGTACATATTTGGACTTATAT [XGTACX_site4977] | 11.2 ± 0.9
TACTTTTATAAAAATTGTACAAAAAAAAAAAAAAAA [XGTACX_site2266] | 10.9 ± 0.8

Sequence | gcPBM binding intensity (ln)
TATGTTATAAAATATATATTATAATATGTATATATA [XGTACX_negctrl_site233] | 9.63 ± 0.014
TATGCTTTGATGAAGACACACATATAGAAGCGTATT [CACACA_site1925] | 9.99 ± 0.028
CGCCCACAGATATATACACACATATATAAATAAATA [CACACA_site6877] | 10.1 ± 0.3
TAAATAAATACATACACACACATACAGATATATATA [CACACA_site5690] | 9.985 ± 0.092
ATAATAAGCAGACACACACACACAAAAAAAAAAAAA [CACACA_site6477] | 10.2 ± 0.63
ATATAAATTTAATACACACCCAAAAAAAAAAAAAAA [CACACA_site3750] | 9.97 ± 0.47
ATATACATATCAATGTAATATTATATACTTTTTTAG [CACACA_negctrl_site816] | 9.775 ± 0.035
TTTTTTATTCCATAATATAATATGTTTTGAAATTTG [GTGCAC_negctrl_site440] | 9.86 ± 0.014
AAACGAGAACATAATAAATACATAAATAAATAAATA [GTGCAC_negctrl_site433] | 9.75 ± 0.11
AAAAAAATAAATAAATGTACATATATAAAACATTGT [XGTACX_site2136] | 11.1 ± 0.46
ATATAATTATATTCCATACACACATATATTTAAAGG [CACACA_site2958] | 10.08 ± 0.042
TTATTTATGAAGTATACACACAATATATATATATAT [CACACA_site1248] | 10.1 ± 0.19
TTAATCCACAGACACACACACACAAAATAAAATACA [CACACA_site244] | 10.3 ± 0.39
TATATATTAAACTTTGCACACATAATTTAACTACAA [CACACA_site3440] | 10.1 ± 0.15
TAGTTCTTTTAATTTAGTATTATACAATATTGGAAA [CACACA_negctrl_site521] | 9.95 ± 0.19
AATATATTAAATATTACACACATACATTTAGTGTAA [CACACA_site5145] | 9.96 ± 0.12
TTTATTTTATTCACTATCATAAGCAAAACTTAAACA [GTGCAC_negctrl_site287] | 9.89 ± 0.28
ATTAATAATATTACATGTACATAATATAATTGAAAA [XGTACX_site5084] | 11.2 ± 0.73
TGTATATGAAAAAATAGTACTCATATAAATATCTTT [XGTACX_site6542] | 11.2 ± 0.76
ATAATATATTTATAAACACACAAAAAAAGTTATATA [CACACA_site6831] | 9.995 ± 0.049
TAGTTAATATGATTATGTACATATATATATTAATTT [XGTACX_site1750] | 11.1 ± 0.46
TTAGATATTATTATATGTACATATTATATGTATTAT [XGTACX_site3836] | 11.1 ± 0.69

Sequence | gcPBM binding intensity (ln)
ATTTTTTTTTTTTTTTTTTTTTTTTTTTTTGTTGTT [CACACA_negctrl_site1313] | 9.62 ± 0.16
AAAAAAAATACATGTTGTACGGTACAAATATAAAGT [XGTACX_site2863] | 11.1 ± 0.47
ACAAAGATAAAACATAAAATATATCAAACATAAAAT [XGTACX_negctrl_site198] | 9.89 ± 0.11
AATAAATATAAATACACACCCATATAAATATAAATA [CACACA_site7264] | 10 ± 0.028
AAAAAAATAATAAAATGTACAAATAAACACATAAAG [XGTACX_site5102] | 10.8 ± 0.39
AAATAAAATAAAACAACACACACGAATGTATAAATA [CACACA_site885] | 10 ± 0.13
AAAATAATAAAAAAAAAAAAAAAAAAAAAAAAGTAT [TGCATGCA_negctrl_site193] | 9.795 ± 0.035
ATATATCTTCTTTGCACACTTAAAGGGAAGTGATAA [CACACA_site342] | 10.2 ± 0.36
TAATGTATCTAAAATTGTACAAATATAAATCTAAAT [XGTACX_site1197] | 11.1 ± 0.75
CGCGCCCAGAAACACACACACACACCGATATATATA [CACACA_site5250] | 10.3 ± 0.38
TGTGTTGTAATTAAAACACACATGAAAAAATTAAAA [CACACA_site51] | 9.96 ± 0.16
GTATTATTCTATAGAAGTACAGTATATTATTATTTA [XGTACX_site5073] | 11.4 ± 1
TATATACACGCACATACACACAAATAAAAAAACACC [CACACA_site7578] | 10.8 ± 0.59
TATAACAATTTTTATGCATGCGACTATAATATTTTT [TGCATGCA_site508] | 10 ± 0.099
TACAACAAGTAATGGTGTACATTATATTATGTAATA [XGTACX_site1194] | 11.4 ± 0.56
CATACACATATATATTGTACACATATATGTATGTAT [XGTACX_site4030] | 11.2 ± 0.69
ATATTTTTTTTTTATTGTACCCTCATAAAAGAAAAG [XGTACX_site773] | 11.2 ± 0.85
TAAGGATTGGTATAAAGTACAGGAGTAAATTGAAAA [XGTACX_site8525] | 11.2 ± 0.65
TACATATTGAATAAGACACACATATATATATATATA [CACACA_site1878] | 10.2 ± 0.64
TGTGCATAATTTTGTGCACACCACGCTAATAATTTT [CACACA_site2915] | 10.5 ± 0.38
AAGCTTTCATAAAGATGTACTTTTTAAAAATAATCT [XGTACX_site5725] | 11.2 ± 0.91
GGAATAAATAATATTATACACACGTATATTATTATA [CACACA_site2435] | 9.7 ± 0.16

Sequence | gcPBM binding intensity (ln)
AATTTGTTGAAACACACACACACATACATATATATA [CACACA_site2287] | 10.26 ± 0.014
TAAAATAATAAACAGAAGAAATCATTCATATAAAAA [XGTACX_negctrl_site502] | 9.635 ± 0.035
AAAATAAAAAATTAATGTACTTAGAATTGTCACTAA [XGTACX_site1346] | 11.1 ± 0.61
TTTTTCATGTTTATTAGTACATATATTAAGAATGGA [XGTACX_site3493] | 11 ± 0.72
TTTTGTAAATATATATGTACATATATATATATATAT [XGTACX_site5803] | 11.4 ± 0.75
ACCTATTTATAATAGTGTACGTACAAATTTGTTTAC [XGTACX_site8176] | 11.7 ± 0.89
ATATTTATTTATAATTGTACTAATAATATATTTTAA [XGTACX_site587] | 11 ± 0.73
ATGTATCTATATATATGTACACATATTTTAATTAAA [XGTACX_site3673] | 11.4 ± 0.85
ATAAATATATGATAAAGTACATATTTATATAATAAA [XGTACX_site7263] | 11 ± 0.54
TGATATTATATATATACACACATGTATGTATATATA [CACACA_site1364] | 9.8 ± 0.071
AATTATTATCCCCTCACACACAAAAATAAAAAGAAT [CACACA_site2885] | 10.4 ± 0.3
ATTTTTTATTGTTATAAAAAAAAAATTAAACAATTA [CACACA_negctrl_site1077] | 9.87 ± 0.15
TATATCTATAATATTACACACATATATTTATATTTT [CACACA_site7595] | 9.795 ± 0.021
AGCAGGATTAAAAAAAGTACAAGAATTAATATTTAA [XGTACX_site3413] | 11.3 ± 0.88
ATATATAATAAACAGGTGCATTGTTTTATTTTGTAT | 9.78 ± 0.057
ACCAGTTCTTAATACAAATATGTACATATATATATA [GTGCAC_negctrl_site56] | 11.2 ± 0.68
TTTTTTTTAATTGTGATACGTATATTATTTAATGAT [CACACA_negctrl_site38] | 10.5 ± 0.42
AAAGAAAATAACAAAATTTTGAAAACATCACATTCG [CACACA_negctrl_site89] | 9.965 ± 0.049
AAATTAAAGGCATAAAAGAAAATATTTAATAAAAAA [CACACA_negctrl_site1689] | 9.65 ± 0.23
GAACATTTGAAATATGCACACATGTATAAACCTACA [CACACA_site2654] | 10.2 ± 0.092
TAAAAATAAAGAAAATGTACATAAATAATAATACAT [XGTACX_site2278] | 11.2 ± 0.69
TATTTCATCTTATTTTAGGAAAAACTAATATATAAG [CACACA_negctrl_site1823] | 9.86 ± 0.2
